Here are results for 59 compounds from PubChem BioAssay AID463173 (ICCB-Longwood Screening Facility, Harvard Medical School, 2010).

The whole screen tested about 52,000 compounds, of which about 4,300 (8.3%) were called active. Cut-off read from the data, not from the text of the source: active = survival mostly below about 52% (no sharp cut-off); inactive = mostly above about 56%. This is one part of the list.

This assay concerns DeltatarO mutant. The assay is described as follows: growth inhibition of S. aureus wild type versus tarO mutant, primary screen, teichoic acid synthesis inhibitors, RN4220, OD600 (AID 463173). Particulars: OD600, 18 h, active compounds read low, screened at 18.75 µg/mL (by protocol).
On to `CCOC(=O)N1CCc2c(sc3c2c(=O)n(Cc2ccccc2)c(=O)n3Cc2c(F)cccc2Cl)C1`, for which the survival was inactive: 89%.
As for `CCC1C(=O)N=C(SCC(=O)Nc2cccc3ccccc23)NC1=O` (centres undefined), the survival is inactive: 79%.
`CSc1cccc(N2C(=O)N(Cc3ccc([N+](=O)[O-])cc3)c3ccccc3S2(=O)=O)c1`: the survival was inactive: 97%.
Regarding `O=C1CC(c2nc3ccccc3n2Cc2c(F)cccc2Cl)CN1c1cccc(C(F)(F)F)c1` (centres undefined), the survival is inactive: 74%.
`CCOC(=O)c1ccc(N2C(=O)c3n[nH]c(-c4cccs4)c3C2c2ccc(C)cc2)cc1` (centres undefined): the survival was inactive: 78%.
Turning to `Cc1cc(NCCN)nc2ccccc12`, the survival was inactive: 100%.
For the compound `CC1=C(C(=O)Nc2ccccc2C)C(c2ccccc2O)NC(=S)N1` (centres undefined), the survival is inactive: 103%.
On to `CCCCOc1cccc(C(=O)Nc2cc3nn(-c4ccc(F)cc4)nc3cc2C)c1`, for which the survival was inactive: 81%.
On to `CCCN(CCC)CCCNC(=O)Cn1ncc2c3ccccc3n(Cc3ccc(F)cc3)c2c1=O`, for which the survival was inactive: 91%.
With `COCCCNC(=O)CCCn1c(=O)c2cccn2c2cccnc21`, the survival is inactive: 95%.
With `Cc1nc(C)c(-c2ccc(SCC(=O)Nc3ccccc3F)nn2)s1` the figure was inactive: 118%; with `Cc1cc2ccccc2n1-c1ccc(C(=O)N2CCCCC2)s1`, inactive: 79%.
As for `COc1cccc(CNC(=O)CCNS(=O)(=O)c2cccc3nsnc23)c1`, the figure is inactive: 119%; as for `O=C(c1cc2ccccc2o1)N1CCCC1`, inactive: 99%; as for `Brc1ccc(-c2cc3c(N4CCN(c5ccccc5)CC4)nccn3n2)cc1`, inactive: 194%.
Take `Cc1ccccc1NC(=O)c1sc2nc(-c3ccncc3)ccc2c1N`: the survival is inactive: 39%.
As for `O=C(CC1C(=O)N(c2ccc(F)cc2)C(=O)N1Cc1cccnc1)Nc1ccc(F)cc1` (centres undefined), the survival is inactive: 102%.
For the compound `O=C(c1ccccc1)N1CCN(Cc2ccccc2)CC1`, the survival is inactive: 72%.
As for `COc1ccc(CCN2CC(C(=O)NCCc3ccc(C)cc3)CC2=O)cc1OC` (centres undefined), the figure is inactive: 67%.
With `CCCCn1c(COc2cccc(OC)c2)nc2ccccc21`, the survival was inactive: 57%.
With `COc1ccc(C)cc1NC(=O)CSc1nnc(Cn2nnc3ccccc32)n1C` the figure was inactive: 89%; with `CC(C)(CC(=O)OCC(=O)Nc1ccc(F)c(Cl)c1)CC1=NS(=O)(=O)c2ccccc2N1`, inactive: 90%.
With `COc1cc(NC(=O)c2cc3c(=O)oc4ccc(C)cc4c3s2)cc(OC)c1OC` the figure was inactive: 85%; with `O=C(CSc1nccn1-c1ccc(Cl)cc1)Nc1nc2ccccc2s1`, inactive: 78%.
Consider `CCn1cc(S(=O)(=O)c2ccccc2)c(=O)c2cc(C)ccc21`, for which the survival was inactive: 119%.
With `CCOC(=O)c1[nH]c2ccccc2c1NC(=O)c1ccc(OC(C)C)cc1` the figure was inactive: 57%; with `COc1cc(OC)cc(C(=O)Nc2ccc(S(=O)(=O)Nc3cc(C)nc(C)n3)cc2)c1`, inactive: 71%.
Regarding `COc1ccccc1CNS(=O)(=O)c1c(C)nc2sccn2c1=O`, the survival is inactive: 86%.
For the compound `CCN(Cc1ccccc1)C(=O)CCNS(=O)(=O)c1ccc2c(c1)CC(C)N2C(C)=O` (centres undefined), the survival was inactive: 106%.
Turning to `Cc1ccc(S(=O)(=O)c2cn(Cc3ccccc3)c3cc(N4CCCC4)c(F)cc3c2=O)cc1C`, the survival was inactive: 94%.
As to `COc1cccc(CNC(=O)CCc2c(C)c3cc4c(C)c(C)oc4cc3oc2=O)c1`, the survival is inactive: 101%.
Take `CCOC(=O)c1ccccc1NS(=O)(=O)c1c(-c2ccc(C)cc2)csc1C(=O)OC`: the survival was inactive: 126%.
As to `O=C(Nc1ccccc1C1CC1)c1cccs1`, the survival is inactive: 93%.
Regarding `Cc1nc(-c2ccccc2)sc1CCNC(=O)c1ccco1`, the survival is inactive: 86%.
As for `CCN(C(=O)Cn1ncc2c1-c1cc(C)ccc1OC2)c1cc(Cl)ccc1OC`, the survival was active: 31%.
With `CCc1ccccc1NC(=O)CSc1ncc2c(n1)-c1ccccc1N(Cc1ccc(C)cc1)S2(=O)=O` the figure was inactive: 94%.
Take `CCN(CCCNC(=O)c1cc2cc3cc(C)ccc3nc2s1)c1cccc(C)c1`: the survival is inactive: 102%.
In the case of `O=C(O)CCN1C(=O)c2ccc(Oc3ccc4c(c3)C(=O)N(CCC(=O)O)C4=O)cc2C1=O`, the survival was inactive: 69%.
With `Cc1ccc(C)c(NC(=O)C(=O)NCCc2csc(-c3ccc(C(F)(F)F)cc3)n2)c1` the figure was inactive: 95%.
With `CC(C)(C)C(=O)Nc1ccc2nc(SCC(=O)N3CCCC3)sc2c1` the figure was inactive: 97%; with `COCCNC(=O)Cn1nnc(-c2ccc(OC)cc2)n1`, inactive: 90%.
As for `O=C(Nc1ccc(NC(=O)c2cccs2)cc1)c1ccc(Br)cc1`, the survival was inactive: 124%.
For the compound `CC1CCN(C(=O)CCCOc2ccc(Cl)cc2)CC1`, the survival was inactive: 95%.
As for `CC(C)Oc1ccc(CNC(=O)c2ccc(NC(=O)c3nsc4ccccc34)cc2)cc1`, the figure is inactive: 76%; as for `O=C(OCc1ccccc1Cl)c1ccc(-c2nnn(Cc3ccccc3)n2)cc1`, inactive: 52%; as for `CCOC(=O)C(CC)Sc1nnc(COc2ccc(Cl)c(C)c2)n1CC` (centres undefined), inactive: 52%.
Take `CCc1ccccc1N(CC)C(=O)c1cc2c(s1)-c1ccccc1OC2`: the survival is active: -5%.
As for `Cc1cc(C)nc(NC(N)=NC(C)c2ccccc2)n1` (centres undefined), the figure is active: 20%; as for `CCc1ccc(-n2nc(CO)c(C(=O)NCc3ccccn3)n2)cc1`, inactive: 56%.
As to `Cc1ccccc1CSc1nc2nc(C)c(Cc3ccccc3)c(C)n2n1`, the survival is inactive: 102%.
With `COc1ccc(OC)c(CCNC(=O)c2ccc(CS(=O)Cc3cccc(Cl)c3)o2)c1` (centres undefined) the figure was inactive: 83%; with `Cc1nc(-c2ccccc2)sc1-c1ccc(SCC(=O)Nc2ccc(F)cc2F)nn1`, active: 19%.
For `Cc1oc2ncnc(N3CCCCC3)c2c1C(=O)NCC1CCN(Cc2ccc(F)cc2)CC1`, the survival was inactive: 77%.
As to `CCOC(=O)Cn1c(=O)cc(-c2ccccc2)c2c(C)nn(C)c21`, the survival is inactive: 124%.
As for `O=C1CC(CSc2nnnn2-c2ccccc2)=NN1`, the figure is inactive: 101%; as for `CCC(C)NC(=O)Cn1c(=O)n(-c2ccc(C)cc2)c(=O)c2ccccc21` (centres undefined), inactive: 87%.
`CN(C(=O)c1nn(C)c2c1COc1ccccc1-2)c1cccc(C(F)(F)F)c1`: the survival is inactive: 81%.
With `CCOC(=O)c1cn(CC(=O)Nc2cccc(Cl)c2C)nn1`, the survival was inactive: 94%.
With `COc1ccc(N2CCN(CCCNC(=O)c3cnn(-c4ccc(F)cc4)c3-n3cccc3)CC2)cc1` the figure was inactive: 83%.
